Test results as given in PubChem BioAssay AID1346428 (National Center for Advancing Translational Sciences (NCATS), 2018).
Hit rate of the full screen: of about 48,000 compounds, about 1,200 (2.5%) were called active. About 2% were inconclusive and are not listed.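 How the source made its calls: active means activation of at least 60% and not above a set upper limit (about 1 call in 100 departs from these limits); inconclusive means activation of 40% to 60%, or above that upper limit; inactive means activation under 40%.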 The list shows a part of the results.

Each compound was assayed against Probable G-protein coupled receptor 32 (Homo sapiens) (UniProt O75388) (assay: qHTS for Agonists of Human Resolvin D1 Receptor DRV1). Settings: CHO-K1 GPR32 beta-arrestin PathHunter luminescence, 90 min; at 76.9 µM; active compounds read high; zero percent set by DMSO-only wells.
UniProt O75388, sequence (O75388 whole entry, looked up): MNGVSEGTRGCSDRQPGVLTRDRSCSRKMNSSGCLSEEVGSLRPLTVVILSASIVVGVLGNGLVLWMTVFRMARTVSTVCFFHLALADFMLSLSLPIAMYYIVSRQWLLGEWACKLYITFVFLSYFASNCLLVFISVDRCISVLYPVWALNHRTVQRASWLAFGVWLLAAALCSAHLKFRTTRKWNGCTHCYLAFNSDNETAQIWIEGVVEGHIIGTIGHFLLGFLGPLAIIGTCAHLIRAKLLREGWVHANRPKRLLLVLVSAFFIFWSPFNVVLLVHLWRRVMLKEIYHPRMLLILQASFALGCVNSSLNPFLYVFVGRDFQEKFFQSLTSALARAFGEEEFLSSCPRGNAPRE
Outline: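 CHO-K1 cells stably expressing ProLink-tagged GPR32 and Enzyme Activator-tagged beta-arrestin were seeded at 2,500 cells/well overnight, exposed to compounds for 90 min at 37 °C, then read by beta-Gal complementation chemiluminescence after 1 h detection reagent.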
Further: 0% is about no effect.

activation, active:
COc1ccc(/C=C/C(=O)Nc2ccc(Cl)c(Cl)c2)cc1 67.6%

activation, inactive:
COc1ccc(CCNC(=O)c2cc3c(s2)-c2ccccc2OC3)cc1OC -7.72%, Fc1ccc(N2CCN(c3ncnc4c3nc3n4CCCCC3)CC2)cc1 22.5%, Cc1cccc(NC(=O)Nc2ccc(Br)cc2)n1 0.452%, O=C1CCCc2cc(S(=O)(=O)NCC3CCC(C(=O)NCc4ccccc4Cl)CC3)ccc2N1 (stereo not drawn) 31.3%, O=C(Cn1ccc2ccccc2c1=O)NCCC(=O)Nc1ccc(F)cc1F -7.41%, COc1ccccc1N1CCN(C(=O)c2c(C)oc3ncn(CC(C)C)c(=O)c23)CC1 -4.79%, Cc1ccc(-n2nc3c(N4CCC(C(=O)NC(C)c5ccccc5)CC4)nnc(C)c3c2C)cc1 (stereo not drawn) -14.1%, CCOc1ccc(Nc2cc(C)nc3nc(Cc4ccc(Cl)cc4)nn23)cc1 -17.9%, Cc1cnc(=O)[nH]c1SCC(=O)Nc1nc2ccccc2s1 -2.35%, Cc1ccc2oc(-c3cccc(NC(=O)c4sc5c([N+](=O)[O-])cccc5c4Cl)c3)nc2c1 0.447%, O=c1c2sccc2n(Cc2cc(=O)n3ccccc3n2)c(=O)n1-c1cccc(C(F)(F)F)c1 -13.2%, CCOC(=O)c1cnc2ccccc2c1Nc1cccc(OC)c1 -6.31%, CCc1ccc(C(=O)NC(Cc2c[nH]c3ccccc23)C(=O)OCC(=O)c2ccc(Br)cc2)cc1 (stereo not drawn) -23.9%, Cc1cc2c(cc3c(SCC(=O)Nc4cccc(Cl)c4C)nnc(C)n32)o1 -15.2%, CNS(=O)(=O)c1cc(-c2nnc(Nc3cc(C)ccc3C)c3ccccc23)ccc1C -4.09%, Cc1ccc(-c2nnc(SCC(=O)NCc3ccccc3)nc2-c2ccc(C)cc2)cc1 -35.3%, COc1ccccc1N1CCN(C(=O)c2cnc(N3CCCCC3)c3ccccc23)CC1 -17.5%, Cc1cc(-c2ccc(C)c(S(=O)(=O)Nc3cccc(C#N)c3)c2)on1 21.9%, O=C(COc1ccc(F)cc1)NCCc1nc2ccccc2[nH]1 27.6%, CCOc1ccc(CCNC(=O)c2c(C)oc3ncn(C)c(=O)c23)cc1 -6.86%, CC(C)CCOc1ccccc1Cn1c(=O)sc2ccccc21 -29.6%, Cc1ccc(Cl)cc1N1CCN(C(=O)c2ccc3nc(N4CCC(C)CC4)sc3c2)CC1 -33.2%, CCOC(=O)c1cc(-c2ccccc2)n(CCC(=O)Nc2nc3c(C)cccc3s2)c1C -26.1%, Cc1ccccc1NS(=O)(=O)c1ccc2[nH]c3c(c2c1)CCCCC3 9.66%, O=C(NCCCN1CCOCC1)c1ccc(Cl)cc1 3.78%, Cn1c(=O)c2sccc2n2c(CCCC(=O)Nc3ccc(Oc4ccc(Cl)cc4)cc3)nnc12 -3.9%, CCc1ccc(-n2c(=O)c3c(C)c(C(=O)N(C)C)sc3n(Cc3ccccc3F)c2=O)cc1 -2.93%, CCOc1ccccc1CNC(=O)CCn1ccc2cc(S(=O)(=O)N3CCCCC3)ccc21 -16.6%, Cc1ccc(-c2cc3c(N4CCN(c5cc(C)ccc5C)CC4)nccn3n2)cc1 7.04%, CC(=O)N1c2c(cc(Br)cc2S(=O)(=O)N2CCN(c3ccccc3)CC2)CC1C (stereo not drawn) -1.48%, COc1cccc(CNC(=O)c2ccc(NC(=O)N3CCCCc4ccccc43)cc2)c1OC -2.02%, CCOc1cccc(OCCCn2c(-c3ccc(Br)cc3)nc3ccccc3c2=O)c1 -4.38%, CC(=O)c1cccc(NC(=O)C(C)n2c(=O)cc(-c3ccccc3)c3c(C)nn(C)c32)c1 (stereo not drawn) -12.5%, CCOc1ccc(-c2cc(-c3nc(-c4ccc(C)cc4)no3)[nH]n2)cc1 -4.26%, CCN1C(=O)c2ccccc2S(=O)(=O)c2ccc(C(=O)NCc3ccccc3Cl)cc21 -20.4%, COC(=O)CSc1ncc2c(n1)-c1ccccc1N(Cc1cccc(F)c1)S2(=O)=O -4.07%, O=C(Cn1c(=O)oc2cc(S(=O)(=O)N3CCCC3)ccc21)NCc1ccc(F)cc1 18.6%, CCc1cccc(C)c1NS(=O)(=O)c1c(C)nc2sccn2c1=O -15.5%, CCOC(=O)C1CCN(C(=O)CSc2n[nH]c(-c3ccc(F)cc3)n2)CC1 -13.7%, COc1cccc(CNC(=O)c2c(C)oc3nc(C)nc(N4CCOCC4)c23)c1 0.981%, CCN(CC)S(=O)(=O)c1ccc2c(c1)N(CC(=O)N1CCN(c3ccc(Cl)cc3)CC1)C(=O)CO2 -23.5%, O=C(NC1CCCCCC1)C1c2ccccc2C(=O)N1Cc1ccccc1Cl (stereo not drawn) -11.4%, Cc1cccc(C(=O)Nc2ccc(OCc3cc(=O)n4ccsc4n3)cc2)c1 -2.19%, CCOC(=O)c1c(-c2ccccc2)csc1NC(=O)c1cc(-c2ccc(C)c(F)c2)on1 -4.99%, O=C(Cn1ccc2cc(S(=O)(=O)N3CCCCCC3)ccc21)NCCc1ccc(Cl)cc1 19.1%, O=C(O)[C@@H]1[C@H]2C[C@H]3c4[nH]c5ccccc5c4CCN3C[C@@H]2CC[C@@H]1O -16.1%, CCOc1ccccc1-c1nc(SCC(=O)c2ccc(OC)c(Br)c2)n[nH]1 -6.01%, CCc1ccc(NC(=O)C2CCCN(S(=O)(=O)c3c(C)noc3/C=C/N(C)C)C2)cc1 (stereo not drawn) -26.8%, Cc1ccc(Cl)cc1N1CCN(C(=O)CCCCCn2c(=O)[nH]c3ccccc3c2=O)CC1 -6.8%, Cc1ccc(-n2c3c(cc(C(=O)Nc4cccc(Cl)c4)c2=O)C(=O)CC(C)(C)C3)cc1 -17.4%, CCN1CCN(C(=O)c2ccc3c(c2)N(Cc2ccccc2F)C(=O)c2ccccc2S3=O)CC1 (stereo not drawn) 32.3%, CC(C)OC(=O)c1cccnc1SCC(=O)Nc1ccc(C(F)(F)F)cc1Cl -14.6%
